Measured values taken from PubChem BioAssay AID1347165 (National Center for Advancing Translational Sciences (NCATS), 2019).
The whole screen tested about 220,000 compounds, of which about 5,700 (2.6%) were called active. The shares of active, inactive and inconclusive entries below differ from those in the screen. Calls follow the shape of the dose curve; as a rule, active = well fitted inhibition curve with a large enough effect; inconclusive = small, poorly fitted or top-dose-only effect; inactive = no such curve, though single readings can be large or run the other way. A potency beside an inconclusive call is a rough fit, not a confirmed value.

target: Lysine-specific demethylase 5B (Homo sapiens) (UniProt Q9UGL1); assay: Primary screen for KDM5B Histone Demethylases FDH-coupled qHTS; conditions: FDH-coupled NADH fluorescence (FDH is formaldehyde dehydrogenase); series mostly up to 57.7 µM; also: nearly all actives have a fitted effect of over 70% in size
How it was run: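 qHTS format, multiple compound concentrations. Buffer 50 mM HEPES pH 7.5/0.01% Tween-20; 200 nM KDM5BΔAP final; 10 min compound preincubation; substrate-mix levels 12.5 µM peptide, 25 µM α-KG, 0.25 mM NAD⁺; 30 min RT; ΔRFU.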
Potency is read from the fitted curve at half-maximal effect; tags tell the direction and shape of the fitted curve.

UniProt Q9UGL1, sequence (Q9UGL1 whole entry, looked up): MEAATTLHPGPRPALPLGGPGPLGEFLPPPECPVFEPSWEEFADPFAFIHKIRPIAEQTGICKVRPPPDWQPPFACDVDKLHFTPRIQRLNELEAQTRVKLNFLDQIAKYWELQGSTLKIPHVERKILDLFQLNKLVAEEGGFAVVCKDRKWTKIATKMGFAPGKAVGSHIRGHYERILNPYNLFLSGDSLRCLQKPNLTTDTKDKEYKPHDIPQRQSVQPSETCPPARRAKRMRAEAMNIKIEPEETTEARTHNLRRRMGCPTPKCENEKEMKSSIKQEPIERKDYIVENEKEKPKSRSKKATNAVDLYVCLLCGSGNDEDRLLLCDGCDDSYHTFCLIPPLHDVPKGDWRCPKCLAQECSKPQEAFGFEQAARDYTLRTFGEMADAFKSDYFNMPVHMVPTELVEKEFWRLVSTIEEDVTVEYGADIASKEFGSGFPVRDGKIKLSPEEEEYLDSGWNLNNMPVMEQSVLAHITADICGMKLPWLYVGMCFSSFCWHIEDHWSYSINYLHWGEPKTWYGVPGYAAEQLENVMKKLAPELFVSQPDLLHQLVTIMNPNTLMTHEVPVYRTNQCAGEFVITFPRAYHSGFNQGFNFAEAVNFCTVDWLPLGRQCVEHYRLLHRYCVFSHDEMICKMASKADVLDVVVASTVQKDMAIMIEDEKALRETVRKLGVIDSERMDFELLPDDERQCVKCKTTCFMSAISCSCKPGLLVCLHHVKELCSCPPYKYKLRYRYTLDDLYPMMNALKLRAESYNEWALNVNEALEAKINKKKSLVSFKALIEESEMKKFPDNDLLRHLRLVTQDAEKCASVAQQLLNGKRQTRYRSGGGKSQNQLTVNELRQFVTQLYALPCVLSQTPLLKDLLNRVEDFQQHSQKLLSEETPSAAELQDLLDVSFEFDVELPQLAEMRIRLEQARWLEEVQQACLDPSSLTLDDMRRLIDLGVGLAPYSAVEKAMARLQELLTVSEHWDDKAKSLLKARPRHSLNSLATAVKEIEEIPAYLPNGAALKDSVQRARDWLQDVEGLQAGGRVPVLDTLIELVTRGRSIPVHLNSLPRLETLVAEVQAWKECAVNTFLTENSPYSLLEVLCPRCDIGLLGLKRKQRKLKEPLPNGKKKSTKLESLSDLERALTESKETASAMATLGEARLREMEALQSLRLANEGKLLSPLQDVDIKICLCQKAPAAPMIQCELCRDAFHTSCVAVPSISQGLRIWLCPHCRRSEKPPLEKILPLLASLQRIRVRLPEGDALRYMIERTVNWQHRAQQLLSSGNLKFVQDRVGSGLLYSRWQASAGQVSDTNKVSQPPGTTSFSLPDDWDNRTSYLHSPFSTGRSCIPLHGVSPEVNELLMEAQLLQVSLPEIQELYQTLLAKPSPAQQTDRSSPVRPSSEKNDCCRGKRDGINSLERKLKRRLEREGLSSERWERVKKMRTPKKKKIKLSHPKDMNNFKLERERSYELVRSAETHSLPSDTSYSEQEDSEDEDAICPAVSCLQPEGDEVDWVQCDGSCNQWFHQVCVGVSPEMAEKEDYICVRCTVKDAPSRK

**Q.** `Cc1c(C(=O)Nc2ccccc2Br)oc2ccc(S(=O)(=O)N3CCCCC3)cc12` was tested. Which Potency did it give?
**A.** The Potency was inconclusive: 25.1 µM [inhibitor, partial curve, poor fit].

**Q.** Which Potency does the source give for `O=C(Nc1ccc(Cl)cc1Cl)c1ccccc1-c1ccccc1` here?
**A.** Its Potency is inconclusive: 35.5 µM [inhibitor, single point].

**Q.** Which Potency does the source give for `CCOC(=O)C1=C(CNc2ccc(C)cc2)NC(=O)NC1c1ccccc1` (centres undefined) here?
**A.** The Potency was “inactive”.

**Q.** `CCCCn1c(-c2ccc(S(=O)(=O)N3CCOCC3)cc2)csc1=Nc1ccccc1` was tested. Which Potency did it give?
**A.** The Potency was inconclusive: 28.2 µM [inhibitor, partial curve, poor fit].

**Q.** Which Potency does the source give for `COCCNC(=O)CC1=CSC2=NC(C)=C(C(=O)OC(C)C)C(c3ccc([N+](=O)[O-])cc3)N12` (centres undefined) here?
**A.** The Potency was inconclusive: 31.6 µM [inhibitor, partial curve, poor fit].

**Q.** Which Potency does the source give for `COc1cc(OC)cc(C(=O)N2CCC[C@H]2c2nc(-c3ccc(OC)c(OC)c3)no2)c1` here?
**A.** The Potency was “inactive”.

**Q.** `CC(=O)NC(C(=O)O)=C(Cl)Cl` was tested. Which Potency did it give?
**A.** Its Potency is “inactive”.

**Q.** For `O=C(NC1CCCN(C2CCCCCC2)C1)c1ccccc1N1CCOCC1` (centres undefined), which Potency is on record?
**A.** Its Potency is inconclusive: 35.5 µM [inhibitor, single point].

**Q.** How did the Potency turn out when `Cc1ccc(CN2CCCCCNC(=O)[C@@H]3CCC[C@@H]32)s1` was run?
**A.** The Potency was inconclusive: 28.2 µM [inhibitor, single point].

**Q.** For `COc1ccc(-c2cc(N3CCCN(C(=O)c4ccc(C)c(F)c4)CC3)n[nH]2)cc1`, which Potency is on record?
**A.** The Potency was inconclusive: 8.91 µM [inhibitor, partial curve, poor fit].

**Q.** Which Potency does the source give for `Cc1ccc(Cl)cc1NC(=O)Cn1c(=O)c(CNc2ccccc2)cc2cc3c(cc21)OCCO3` here?
**A.** Its Potency is inconclusive: 4.47 µM [inhibitor, partial curve, poor fit].

**Q.** Which Potency does the source give for `Cc1cc(C)c2c(=O)n(CC(=O)Nc3ccccc3Cl)c(=O)n(C)c2n1` here?
**A.** Its Potency is inconclusive: 25.1 µM [inhibitor, partial curve, poor fit].

**Q.** For `O=C(N[C@H]1CCN2C(=O)c3ccccc3NC(=O)[C@H]12)C1CCCC1`, which Potency is on record?
**A.** The Potency was “inactive”.

**Q.** Which Potency does the source give for `CCN(C)S(=O)(=O)c1cc2c(cc1Cl)Oc1cc(C)ccc1NC2=O` here?
**A.** The Potency was “inactive”.

**Q.** Which Potency does the source give for `Cc1ccccc1NS(=O)(=O)c1ccc2[nH]cc(C(=O)N3CCCC3)c(=O)c2c1` here?
**A.** The Potency was inconclusive: 22.4 µM [inhibitor, single point].

**Q.** `Cc1nc2ccn(Cc3cccnc3)c(=O)c2cc1C(=O)Nc1ccc(OC(F)(F)F)cc1` was tested. Which Potency did it give?
**A.** The Potency was inconclusive: 22.4 µM [inhibitor, single point].

**Q.** For `O=C(CSc1nnc2ccccn12)N1CCN(Cc2cccc(Cl)c2)CC1`, which Potency is on record?
**A.** Its Potency is “inactive”.

**Q.** With `Cn1cc(C=O)c(-c2ccc3c(c2)OCCCO3)n1` as the compound, how does the Potency read?
**A.** Its Potency is “inactive”.

**Q.** `COCCN1C(=O)c2ccccc2NC1c1csc(-c2ccc(Cl)cc2)n1` (centres undefined) was tested. Which Potency did it give?
**A.** Its Potency is “inactive”.

**Q.** For `O=C1c2ccccc2S(=O)(=O)N1Cc1nc(-c2ccc(Cl)c(Cl)c2)cs1`, which Potency is on record?
**A.** The Potency was “inactive”.

**Q.** `COc1ccc(N2CCCCS2(=O)=O)cc1S(=O)(=O)N1CCC2(CC1)OCCO2` was tested. Which Potency did it give?
**A.** The Potency was inconclusive: 39.8 µM [inhibitor, single point].

**Q.** How did the Potency turn out when `COc1ccc(C(=O)NCCc2sc(-c3cccc(F)c3)nc2C)cc1` was run?
**A.** The Potency was inconclusive: 25.1 µM [inhibitor, partial curve, poor fit].

**Q.** Which Potency does the source give for `O=C(NCCCSc1ccc(F)cc1)C1CCN(C(=O)c2cccs2)CC1` here?
**A.** Its Potency is “inactive”.

**Q.** `CN(C)c1ccc(C(=O)N2CCC[C@H]2c2nc(-c3ccc(F)cc3)no2)cc1` was tested. Which Potency did it give?
**A.** Its Potency is inconclusive: 20 µM [inhibitor, single point].

**Q.** `COCCNc1ncccc1-c1noc([C@@H]2CCCN2C2CCC2)n1` was tested. Which Potency did it give?
**A.** The Potency was active: 31.6 µM.

**Q.** With `COc1ccc(N2C(=O)CN(C3CCCCC3)[C@H]3CS(=O)(=O)C[C@H]32)cc1` as the compound, how does the Potency read?
**A.** The Potency was “inactive”.

**Q.** With `Cc1cc(C(=O)N[C@@H]2C[C@H](Cn3cc(CN(C)C)nn3)[C@@H](O)[C@H]2O)c(C)o1` as the compound, how does the Potency read?
**A.** Its Potency is inconclusive: 35.5 µM [inhibitor, partial curve, poor fit].

**Q.** `O=C(Cc1ccc(NC(=O)N2CCSc3ncccc32)cc1)NCc1ccccc1Cl` was tested. Which Potency did it give?
**A.** The Potency was inconclusive: 31.6 µM [inhibitor, partial curve, poor fit].

**Q.** With `Cc1cccc(Oc2cnn(-c3ccc(C(F)(F)F)cn3)c(=O)c2Cl)c1C` as the compound, how does the Potency read?
**A.** Its Potency is “inactive”.

**Q.** For `CCCc1nn(-c2cccc(C)c2)c(=O)n1CC(=O)NCc1ccc(C)o1`, which Potency is on record?
**A.** Its Potency is inconclusive: 25.1 µM [inhibitor, partial curve, poor fit].

**Q.** For `COCCOc1ccc2c(n1)CCN(C(=O)c1ccccn1)C2`, which Potency is on record?
**A.** The Potency was inconclusive: 10 µM [inhibitor, partial curve, poor fit].

**Q.** How did the Potency turn out when `CN(C)C(CNC(=O)C1CC=CCC1)c1ccsc1` (centres undefined) was run?
**A.** The Potency was “inactive”.

**Q.** How did the Potency turn out when `Cc1ccsc1CN1CCCCCNC(=O)[C@@H]2CCC[C@@H]21` was run?
**A.** The Potency was inconclusive: 3.55 µM [inhibitor, partial curve, poor fit].

**Q.** With `O=C(COc1cccc(-c2nnc3n2CCCC3)c1)Nc1ccc(Br)cc1` as the compound, how does the Potency read?
**A.** The Potency was “inactive”.

**Q.** `COc1ccc(NC(=O)c2cc3n(n2)CC(c2ccc4c(c2)OCO4)OC3)cc1Cl` (centres undefined) was tested. Which Potency did it give?
**A.** The Potency was active: 25.1 µM.

**Q.** Which Potency does the source give for `O=C1COCC2(CN(c3ccccc3)C2)CN1c1ccc(OC(F)(F)F)cc1` here?
**A.** Its Potency is inconclusive: 31.6 µM [inhibitor, single point].

**Q.** How did the Potency turn out when `COc1cccc(-c2ncc3c(n2)OCCN(Cc2ccc(F)cc2F)C3=O)c1F` was run?
**A.** The Potency was inconclusive: 14.1 µM [inhibitor, partial curve, poor fit].

**Q.** Which Potency does the source give for `O=C(CCCc1c[nH]c2ccccc12)N1CCCC1CN1CCCC1` (centres undefined) here?
**A.** The Potency was “inactive”.

**Q.** How did the Potency turn out when `Brc1ccc(C=Nc2cccc3ccccc23)cc1` was run?
**A.** The Potency was inconclusive: 22.4 µM [inhibitor, partial curve, poor fit].

**Q.** `CCN(CC)Cc1ccc(CNC(=O)c2n[nH]c(=O)c3ccccc23)cc1` was tested. Which Potency did it give?
**A.** Its Potency is “inactive”.

**Q.** How did the Potency turn out when `Cc1ccc(C(=O)N2C[C@@H](F)C[C@H]2C(=O)N2CCCCC2)c(C)c1` was run?
**A.** Its Potency is “inactive”.

**Q.** `Cc1nc2c(C(=O)NCc3ccccc3Cl)cnn2c(C)c1Cc1c(F)cccc1Cl` was tested. Which Potency did it give?
**A.** Its Potency is inconclusive: 7.08 µM [inhibitor, partial curve, poor fit].

**Q.** `Cc1ccc2c(CSc3nnnn3-c3ccc(O)cc3)cc(=O)oc2c1C` was tested. Which Potency did it give?
**A.** Its Potency is “inactive”.

**Q.** How did the Potency turn out when `Cc1ccc(-c2cc(C(=O)N3CCN(C(=O)c4ccco4)CC3)c3ccccc3n2)o1` was run?
**A.** The Potency was “inactive”.
